# Among all 45,000 compounds or so, about 200 (0.44%) were called active. Roughly 7% stayed inconclusive and do not appear here. The call rests on the fitted dose curve; in most records, active means well fitted activation curve with a large enough effect; inconclusive means small, poorly fitted or top-dose-only effect; inactive means no such curve, though single readings can be large or run the other way. The list shows a part of the results.
# Test: qHTS of TDP-43 Inhibitors: NCGC Sytravon Library Screen; further: 0% is about no effect; nearly all actives have a fitted effect of over 55% in size
# Details: yeast TDP-43 toxicity rescue, BacTiter-Glo growth, 24 h; series mostly up to 46.1 µM; growth rescue (activation): at the top concentration
# In short: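 TDP-43-expressing yeast, pregrown in raffinose, seeded at OD600 0.02 in galactose medium with compound for 24 hr at 30 deg C. Growth read by BacTiter-Glo luminescence, so rescue of toxicity appears as activation.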
row,SMILES,growth rescue (activation)
1,CCc1nc2ccc(C(=O)NCCCn3ccnc3)cn2c1N(CC)Cc1cccc(Br)c1,inactive: 12.1%
2,O=S(=O)(c1ccc(Cl)c(NC(=S)N/N=C/c2c(F)cccc2F)c1)N1CCOCC1,inactive: 14.8%
3,COc1ccc(/C=C/CN2CCN(Cc3ccc(C)cc3)C(CCO)C2)cc1 (stereo unspecified),inactive: 5.25%
4,CCC(=O)/C(=C(/O)c1ccccc1)c1nc2ccccc2[nH]1,inactive: 4.18%
5,CN(Cc1nc(-c2ccccc2)no1)C(=O)c1ccco1,inactive: 15%
6,COC(=O)c1ccc(NC(=O)c2ccc[n+]([O-])c2)cc1,inactive: 15%
7,O=[N+]([O-])c1ccc(Cl)c(S(=O)(=O)/N=C(/c2ccccc2)N2CCOCC2)c1,inactive: -1.44%
8,O=C(NCc1ccco1)C1CC(O)CN1C(=O)Nc1ccccc1 (stereo unspecified),inactive: -6.48%
9,COc1ccc(Cc2nnc(Nc3ccc4c(c3)OCCO4)[nH]c2=O)cc1,inactive: 14.5%
10,CC1(C)CC(=O)C2=C(C1)NC(=O)NC2c1ccc(Cl)cc1 (stereo unspecified),inactive: -8.12%
11,Cc1ccc(C)c(Cn2nc(-c3cc(C)ccc3C)ccc2=O)c1,inactive: -24.2%
12,Cc1ccc(NC(=O)CCn2nnc3ccccc32)cc1,inactive: -8.62%
13,CCN(CC)C(=O)CN(C#N)c1nc(C)cc(C)n1,inactive: 0.54%
14,CCN(C(=O)COC(=O)[C@H](C)N=C1NS(=O)(=O)c2ccccc21)C1CCS(=O)(=O)C1 (stereo partly specified),inactive: -6.4%
15,O=C(Nc1ccc(Oc2ccccc2)nc1)C1CCN(Cc2ccco2)CC1,inactive: -4.68%
16,Cc1cccc2cc3c(NC(=O)C(C)(C)C)nn(CC(C)C)c3nc12,inactive: 4.14%
17,CC(=O)c1c(C)[nH]c(C(=O)Nc2ccccc2Cl)c1C,inactive: -10.8%
18,Cc1ccc2cc(CN(c3ccc(C)c(C)c3)S(C)(=O)=O)c(=O)[nH]c2c1,inactive: -15%
19,CCC(C)[C@H](N)C(=O)NC[C@H]1CC[C@H](C(=O)N[C@@H](Cc2ccccc2)C(=O)O)CC1 (stereo partly specified),inactive: -14.7%
20,O=C(CC1NCCNC1=O)Nc1ccc(Cl)c(Cl)c1 (stereo unspecified),inactive: 4.6%
21,CCOC(=O)C1(Cc2ccccc2C(F)(F)F)CCN(C2CCCC2)CC1,inactive: 6.45%
22,COc1ccc(-c2cc(C(=O)N3CCN(c4ccccc4OC)CC3)no2)cc1OC,inactive: 3.18%

row,SMILES,growth rescue (activation)
1,O=c1c(Cl)c(Cl)cnn1Cc1nnc(-c2ccc(Cl)cc2)o1,inactive: 3.74%
2,CCCNC(=O)C1(C)CCN(C(=O)c2sccc2C)C1 (stereo unspecified),inactive: 5.77%
3,CCNC(=S)SCCOc1ccc(C)cc1,inactive: 14.3%
4,CC1CCCN(C(=O)COC(=O)Cc2c(F)cccc2Cl)C1 (stereo unspecified),inactive: 10.9%
5,CCOC(=O)C1CCN(c2ncnc3c2c(-c2ccccc2)cn3-c2ccccc2)CC1,inactive: 28.4%
6,CCC(=O)c1ccc(OCC(=O)OCC(=O)Nc2sccc2C(N)=O)cc1,inactive: 15.9%
7,CC1(C(=O)NS(=O)(=O)C2CC2)CCCN(C(=O)c2cccc(Cl)c2)C1 (stereo unspecified),inactive: -0.196%
8,CC(C)c1ccccc1NC(=O)Nc1nnc([C@@H]2C[C@H](O)[C@@H](CO)O2)s1,inactive: 3.39%
9,COc1cc2nc(CSc3ncn[nH]3)[nH]c(=O)c2cc1OC,inactive: 2.57%
10,CCc1nc(N2CCCCC2C(=O)O)c2oc3ccccc3c2n1 (stereo unspecified),inactive: 6.5%
11,CC1(C)OC(=O)C(=NNc2ccc(C(=O)O)cc2)C(=O)O1,inactive: 9.61%
12,CCOC(=O)C1=C(C)NC2=C(C(=O)c3ccccc32)C1c1cccnc1 (stereo unspecified),inactive: 15.1%
13,CC1(C)CC(=O)c2sc(N3CCCCC3)nc2C1,inactive: 6.96%
14,Cc1ccc(NS(=O)(=O)c2cc(C(=O)N3CCN(C)CC3)ccc2C)cc1C,inactive: -11%
15,COc1ccc(OC)c(-c2csc(N(CC3CCCO3)C(=O)C3CCCCC3)n2)c1 (stereo unspecified),inactive: -5.91%
16,Cc1ccsc1/C=N/NC(=O)CN1CCN(S(=O)(=O)c2ccc(Br)cc2)CC1,inactive: -2.68%
17,C=CCNC(=S)NNC(=O)c1ccc(=O)n(Cc2ccc(Cl)cc2Cl)c1,inactive: 7.52%
18,COc1ccccc1/C=C\C(=O)NCC(=O)N/N=C(\C)Cc1ccccc1,inactive: -4.68%
19,COc1ccc(-c2nc(SCc3cc(=O)c4cc(C)ccc4[nH]3)n[nH]2)cc1,inactive: 15.4%
20,CCOCCCNC(=O)C(c1ccc(OC)cc1)N(Cc1ccc2c(c1)OCO2)C(=O)c1ccccc1O (stereo unspecified),inactive: -3.08%
21,CC1CCCCN1C(=O)c1cc(Cl)ccc1[N+](=O)[O-] (stereo unspecified),inactive: 19.3%
22,COc1cc(/C=C/C(=O)OCC(=O)Nc2ccc(S(=O)(=O)N3CCCC3)cc2)ccc1O,inactive: 4.13%

row,SMILES,growth rescue (activation)
1,COc1cc(C(=O)NCCNC(=O)c2ccco2)cc(OC)c1OC,inactive: -37.7%
2,N/C(=N\OC(=O)c1ccc([N+](=O)[O-])cc1)c1ccccn1,inactive: 4.82%
3,COc1cccc(CC(=O)Nc2nc(-c3ccc(OC)c(OC)c3)cs2)c1,inactive: 14.4%
4,Cc1ccc(S(=O)(=O)N(C)C)cc1NC(=O)COC(=O)c1ccc(Cl)cc1,inactive: 12.3%
5,COc1ccc(C(CCNCc2ccc(F)cc2)c2ccc(F)cc2)cc1 (stereo unspecified),inactive: -18.9%
6,O=C(NCc1ccccc1)c1nc(S(=O)(=O)Cc2ccccc2)ncc1Cl,inactive: 2.3%
7,CCNC(=O)COc1ccc(/C=C2\COc3ccccc3C2=O)cc1OC,inactive: 13.8%
8,O=C(Nc1cccc2ncccc12)C(c1ccccc1)c1ccccc1,inactive: -0.436%
9,CCCS(=O)(=O)NC(=O)C1(C)CCCN(C(=O)c2cc(C)nn2C(C)(C)C)C1 (stereo unspecified),inactive: 8.89%
10,Cc1cc(C(=O)OCC(=O)c2ccccc2)c2ccccc2n1,inactive: 20.8%
11,O=C(CCC(=O)N(CC(=O)NC1CCCC1)c1cccc(F)c1)Nc1nccs1,inactive: 1.41%
12,Cc1ccc2ccccc2c1C(O)c1ncc(-c2cccc(C(F)(F)F)c2)[nH]1 (stereo unspecified),inactive: 22.7%
13,Cc1ccc(C(C(=O)NCC2CCCO2)N(C(=O)c2snc(C(N)=O)c2N)c2ccc(C(C)C)cc2)o1 (stereo unspecified),inactive: -21%
14,CCCCNC(=O)N(O)C1N(/N=C/c2cccnc2)C(=S)SC1(C)C (stereo unspecified),inactive: -8.39%
15,COc1ccc([N+](=O)[O-])cc1NC(=S)NC(C)=O,inactive: -0.418%
16,O=C(Nc1ccnn1C1CCN(C2CCC2)CC1)c1ccccc1Cl,inactive: -1.13%
17,COc1ccccc1N=Nc1c(O)[nH]c2ccc(Br)cc12,inactive: 2.05%
18,C/C(=N\Nc1nncc2ccccc12)c1ccc(Cl)c([N+](=O)[O-])c1,inactive: -3.01%
19,CCOc1ccc(S(=O)(=O)NCc2cccnc2)cc1NC(=O)c1ccccc1,inactive: -3.13%
20,COc1ccc(C2(C)NC(=O)N(CC(=O)NCc3ccccc3)C2=O)cc1OC (stereo unspecified),inactive: 11.1%
21,Cn1cccc1/C=N/NC(=O)c1ccncc1,inactive: 8.08%
22,O=C(COc1ccc(-c2nnco2)cc1)Nc1ccc(F)c(Cl)c1,inactive: 5.27%

row,SMILES,growth rescue (activation)
1,CCOC(=O)c1c(NC(=S)NC(=O)/C=C/c2cccs2)sc(C)c1C,inactive: -6.48%
2,CC(=O)Nc1ccc(NC(=O)COC(=O)[C@@H](NC(=O)c2ccc(F)cc2)C(C)C)cc1,inactive: 0.52%
3,O=C(Cn1cc(COc2ccc(Cl)c(Cl)c2)nn1)NS(=O)(=O)c1ccccc1OC(F)(F)F,inactive: -0.949%
4,CC1(C(=O)Nc2cccc3cccnc23)CCN1C(=O)CC1CC1 (stereo unspecified),inactive: 6.8%
5,NC(=O)NOCc1ncc(C(F)(F)F)cc1Cl,inactive: 11.1%
6,COc1cc2c(cc1OC)C(CCc1ccccc1)=NCC2,inactive: -0.454%
7,Cc1noc(C)c1C(=O)NC(Cc1c[nH]c2ccccc12)C(=O)O (stereo unspecified),inactive: 5.85%
8,O=C(COC(=O)Cc1c[nH]c2ccccc12)Nc1ccccc1,inactive: 14%
9,Cc1ccc(NC(=O)CSc2nc3sc(C)cc3c(=O)n2C)cc1,inactive: -2.75%
10,CC1(C)C(=O)Nc2ccccc2N1C(=O)COC(=O)c1cccs1,inactive: 8.96%
11,O=C(c1ccccc1)N1CCN(C(=O)C2CC2)CC1,inactive: -9.34%
12,C=CCCCCCCCCC(=O)NNC1=CC(=O)CC(C)(C)C1,inactive: 18.1%
13,COc1ccc(-c2csc(/C(C#N)=C\c3ccc(O)c([N+](=O)[O-])c3)n2)cc1OC,inactive: -7.44%
14,CC(C)NC(=O)C1CCN(C2CCN(C(=O)/C=C/c3cccs3)CC2)CC1,inactive: 3.08%
15,COc1cc(C(C)=O)ccc1OC(=O)CN1C(=O)c2ccccc2C1=O,inactive: -0.507%
16,Cc1ccc2nc(-c3ccccn3)c(NC3CCCC3)n2c1,inactive: -23.5%
17,COCCNC(=O)c1cc2c(-c3ccccc3F)nn(C)c2s1,inactive: 27.1%
18,CCOc1ccc(NC(=O)CSc2nc3nc4c(cc3c(=O)n2CC)COC(C)(C)C4)cc1,inactive: 8.62%
19,Cc1nn(-c2ccccc2)c(C)c1/C=N/NC(=O)CSc1nnc(-c2ccccc2)n1-c1ccc(Cl)cc1,inactive: -5.96%
20,Nc1c2c(nc3ccccc13)CCC2,inactive: -3.25%
21,O=C(Cc1ccc([N+](=O)[O-])cc1)N1N=C(c2ccncc2)CC1(O)C(F)(F)F (stereo unspecified),inactive: 2%
22,CC(C)C(OC(=O)c1ccc(Cl)nc1)C(=O)NC1CCCCC1 (stereo unspecified),inactive: 16.5%

row,SMILES,growth rescue (activation)
1,Cc1cc(C)c(NC(=O)CC(=O)c2ccccc2)c(Cl)c1,inactive: 0.593%
2,CCC(CC)c1nnc(NC(=O)COc2ccc3c(c2)OCO3)s1,inactive: 3.12%
3,O=C(N/N=C/C=C/c1ccccc1[N+](=O)[O-])c1ccncc1,inactive: 6.78%
4,O=C(NCC1CCCO1)C1CCCN1C(=O)NC1CCCCC1 (stereo unspecified),inactive: 19.8%
5,Cc1cc(C)c2nc(C)cc(Nc3ccc(C(=O)N4CCOCC4)cc3)c2c1,inactive: 9.61%
6,CCCCN1CC(C(=O)NC2CCCCC2)CC1=O (stereo unspecified),inactive: 16.6%
7,COc1cc(CNc2ccc(CNc3ncn[nH]3)cc2)ccc1OCc1ccccc1,inactive: 4.25%
8,COc1cc(N=C2C(=O)N3c4c(cccc42)C(C)=CC3(C)C)cc(OC)c1,inactive: 2.64%
9,Cc1ccc(N(Cc2cc3ccccc3[nH]c2=O)S(=O)(=O)c2ccccc2)cc1,inactive: 12.9%
10,CC(=O)c1cccc(NC(=O)COC(=O)COc2ccc(Cl)cc2)c1,inactive: -28.4%
11,Cc1ccc2c(COC(=O)C34CC5CC(CC(C5)C3)C4)cc(=O)oc2c1,inactive: 12.6%
12,CC(C)(C)n1ncc2c(=O)n(CC(=O)Nc3ccccc3)cnc21,inactive: 8.65%
13,COc1ccccc1C(=O)C1CCCN(C(=O)CCc2ccccn2)C1 (stereo unspecified),inactive: 4.82%
14,O=c1[nH]c2ccccc2nc1/C=C/c1ccccc1,inactive: -4.75%
15,CN(c1ccccc1)c1ccc(/C=C(/CCC(=O)O)c2nc3ccccc3s2)cc1[N+](=O)[O-],inactive: 7.75%
16,CCOc1cc(C(c2c(C)[nH][nH]c2=O)c2c(C)[nH][nH]c2=O)ccc1O,inactive: -9.59%
17,CCN(c1ccccc1)S(=O)(=O)c1ccc(Cl)c(NC(=O)Nc2ccc(Cl)cc2C#N)c1,inactive: 6.59%
18,Cc1ccc(CNC(=O)C2CSC3(C)CCC(=O)N23)cc1 (stereo unspecified),inactive: 4.01%

# From PubChem BioAssay AID1347073 (National Center for Advancing Translational Sciences (NCATS), 2019)
